SMILES strings stand for the structures. In all, about 110,000 compounds were measured (“z-score”: median about -0.1, highest 2% from about 2 on). The list shows a part of the results. Active and inactive are the calls of the source.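 How the source made its calls: active means z-score in the third read window above 3 or below -3; inactive means the rest.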

The assay has as its target Metabotropic glutamate receptor 8 (Rattus norvegicus) (UniProt P70579). The experiment in a line: mGluR8 Gi/Go-coupled signaling modulation – cell-based, rat, thallium flux, HTS, primary screen (AID 488969). Conditions: HEK293 rat mGluR8, GIRK (G protein-gated inwardly rectifying potassium channel) thallium flux, FluoZin2; at 10 µM; stronger effect = higher value; submaximal glutamate (EC20) added with thallium.
Sequence of UniProt P70579 (P70579 whole entry, looked up): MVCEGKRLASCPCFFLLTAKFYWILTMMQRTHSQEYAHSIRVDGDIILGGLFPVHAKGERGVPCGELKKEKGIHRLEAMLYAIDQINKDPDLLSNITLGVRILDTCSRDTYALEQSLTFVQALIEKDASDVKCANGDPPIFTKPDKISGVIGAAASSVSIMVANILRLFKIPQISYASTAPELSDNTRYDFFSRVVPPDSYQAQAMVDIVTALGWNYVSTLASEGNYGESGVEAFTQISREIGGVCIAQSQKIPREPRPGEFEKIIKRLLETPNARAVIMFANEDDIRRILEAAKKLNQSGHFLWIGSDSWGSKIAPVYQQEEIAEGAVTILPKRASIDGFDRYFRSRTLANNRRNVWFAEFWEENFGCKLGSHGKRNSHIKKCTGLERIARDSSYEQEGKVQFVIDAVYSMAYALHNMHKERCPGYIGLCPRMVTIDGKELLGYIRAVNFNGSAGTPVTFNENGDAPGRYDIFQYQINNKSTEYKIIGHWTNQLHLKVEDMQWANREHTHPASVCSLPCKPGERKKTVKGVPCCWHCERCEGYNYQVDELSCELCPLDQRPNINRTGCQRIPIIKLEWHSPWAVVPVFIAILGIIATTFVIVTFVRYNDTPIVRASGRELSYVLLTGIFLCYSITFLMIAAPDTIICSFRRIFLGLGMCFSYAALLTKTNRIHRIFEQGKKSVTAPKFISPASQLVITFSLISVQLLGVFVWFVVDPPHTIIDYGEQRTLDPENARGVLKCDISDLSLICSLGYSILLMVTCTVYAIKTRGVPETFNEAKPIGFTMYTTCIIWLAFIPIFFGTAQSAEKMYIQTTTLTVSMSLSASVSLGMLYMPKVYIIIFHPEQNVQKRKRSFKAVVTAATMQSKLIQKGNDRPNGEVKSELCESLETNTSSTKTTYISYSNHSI
As to `O=C(c1cccc(F)c1)N1CCC(N2CCOCC2)CC1`, the z-score is -0.231.
Consider `CCOC(=O)c1c(C)[nH]c(C)c1C(=O)COC(=O)c1ccc(S(=O)(=O)N(CC)CC)cc1`, for which the z-score is -0.297.
Regarding `Cc1ccc(C(=O)Nc2cccc(C(=O)N3CCOCC3)c2)cc1`, the z-score is -0.208.
As to `N#C/C(=C\c1cn(CCOc2ccccc2F)c2ccccc12)C(=O)NCc1cccs1`, the z-score is -0.0588.
For the compound `N#Cc1cc(-c2cccc(Cl)c2)c[nH]c1=O`, the z-score is -0.201.
Under `CSCCC1NC2(C(=O)Nc3ccc(Cl)cc32)[C@@H]2C(=O)N(C3CCCC3)C(=O)[C@H]12` (some centres not stated) stands -0.242; under `CSc1nnc(NC(=O)c2ccc(C)c(S(=O)(=O)N3CCOCC3)c2)s1`, 0.184.
For the compound `Cn1c(=O)c2c(nc(Oc3ccc4c(c3)OCO4)n2Cc2ccc(F)cc2)n(C)c1=O`, the z-score was -0.184.
For `O=P(Cc1nnco1)(c1ccccc1)c1ccccc1`, the z-score was -0.133.
For the compound `C=CCSc1nc(Cc2ccc(Cl)cc2)nc2ccccc12`, the z-score was -0.333.
In the case of `CCOc1cc(C2CC(=O)N3CN(C4CCCCC4)CSC3=C2C#N)ccc1O` (configuration not stated), the z-score was -0.948.
With `CCOC(=O)C1CCN(c2c(N3CCN(Cc4ccccc4)CC3)c(=O)c2=O)CC1`, the z-score was found to be 1.94.
For `COc1c(C)cc(Br)cc1C(=O)Nc1ccc(C)cc1[N+](=O)[O-]`, the z-score is 0.0365.
Under `COC(=O)c1ccc2c(=O)n(CCN3CCOCC3)c(=S)[nH]c2c1` stands 0.346; under `O=C(N/N=C/c1sc2ccccc2c1O)c1ccccc1`, 1.46.
With `CC(C)CN1C(=O)c2ccccc2C1(O)Cc1ccccc1` (configuration not stated), the z-score was -0.306.
Turning to `CC(C)(C)NC(=O)COC(=O)c1cc(F)c(F)cc1Cl`, the z-score was -0.194.
Under `COc1ccc(N(C(=O)COc2cccc(C)c2)S(=O)(=O)c2ccc(C)cc2)cc1` stands -0.232; under `O=C(/C=C(\O)c1ccc(Cl)cc1)C(=O)NNC(=O)C(O)(c1ccccc1)c1ccccc1`, -0.125; under `COC(=O)N/N=C/c1ccc(-c2cccc(Cl)c2)o1`, -0.218.
For the compound `C/C(O)=C\c1nc(=O)c2c(C)cc(C)nc2n1-c1ccccc1`, the z-score is -0.248.
On to `O=C(CSc1nnc(-c2ccccc2F)o1)OCc1ccccc1`, for which the z-score is -1.2.
As to `CCCSc1nc2c(cnn2-c2ccc(Cl)cc2)c(=O)[nH]1`, the z-score was 0.938.
Then `Cc1ccc(NC(=O)C(Nc2cccc(C)c2)c2ccccc2)cc1` (configuration not stated), with -0.102.
Turning to `Cc1cc(NC(=O)/C(C#N)=C/c2ccc(-c3cccc(C(F)(F)F)c3)o2)n(-c2ccccc2)n1`, the z-score is -0.705.
For `CCOc1ccc2c(c1)nc(SCC(=O)c1ccc(Br)s1)n2C`, the z-score is -0.0596.
`Cc1cc(NC(=O)Cn2nnc(-c3ccccc3N)n2)no1` displayed a z-score of 0.0511.
Compound `Cc1sc2ncn(-n3c(C)ccc3C)c(=O)c2c1C` registered a z-score of 0.559.
Consider `Cc1ccc(C2CC(c3cccs3)=NN2C(=O)c2ccc(Br)o2)cc1` (configuration not stated), for which the z-score is -0.823.
Under `CCOC(=O)c1c(NC(=O)CSc2nnc3c(Cl)cc(Cl)cn23)sc2c1CCC2` stands -0.585; under `CCN(CC)C(=O)C(Sc1ccccc1)c1ccccc1` (configuration not stated), 0.926; under `NC(=O)Cc1ccc2sc(-c3ccccc3)nc2c1`, -0.155.
`Brc1ccccc1-c1nnc(COc2ncnc3c2cnn3-c2ccccc2)o1`: the z-score was -1.21.
As for `COC(=O)C1=C(CSc2nc3c(cc2C#N)CN(C)CC3)OC(N)=C(C#N)C1c1ccccc1F` (configuration not stated), the z-score was -0.183.
On to `O=C(Nc1cccc(O)c1)c1cnn2cccnc12`, for which the z-score was -0.0897.
Take `CSCC[C@@H](C(=O)O)N1Cc2ccccc2C1=O`: the z-score was determined as 0.187.
`COc1ccc(Br)cc1CN1CCCC(C(=O)N2CCCCCC2)C1` (configuration not stated): the z-score is 0.248.
For `CCOc1ccc(-c2cc(C(=O)NN)[nH]n2)cc1`, the z-score came out at 0.556.
Turning to `COc1ccc(S(=O)(=O)N(CC(=O)O)c2ccccc2)cc1`, the z-score turned out to be 0.419.
In the case of `CC(=O)Nc1ccc(NC(=O)c2ccc(COc3ccc4c(C)cc(=O)oc4c3)cc2)cc1`, the z-score is -0.0603.
As to `Cc1c(N(C(=O)c2cc(=O)[nH]c3ccccc23)C(C)C)c(=O)n(-c2ccccc2)n1C`, the z-score turned out to be 0.0816.
Under `COc1ccc(/C=C/C(=O)OCC(=O)NCc2cccs2)cc1OC` stands 1.26.
As for `COC1(c2cc(-c3ccccc3)nc(N)n2)CCCCC1`, the z-score stood at 0.701.
Turning to `O=C(CSc1nnc(CNc2ccc(F)cc2)o1)OC1CCCCC1`, the z-score is -2.6.
Then `Cc1cccc(C)c1NC(=O)C(=O)NCCOc1ccc(Cl)cc1`, with -0.267; and `CC1CCCC(NC(=O)Cc2ccc(Br)cc2)C1C` (configuration not stated), with -0.139.
Consider `c1ccc2c(-c3nc4ncccc4o3)cccc2c1`, for which the z-score is -0.189.
`Cn1c(Cn2nnc3ccccc32)nnc1SCC(=O)Nc1nccs1`: the z-score was -0.341.
Compound `Cn1nnnc1SCc1cn2cccnc2n1` gave a z-score of 0.0961.
Under `COc1cc(/C=C/c2nnc3c4ccccc4ncn23)cc(OC)c1OC` stands -0.245.
As to `COc1ccc(CCC(=O)NCc2cn3ccsc3n2)cc1`, the z-score amounted to 0.0209.
As for `CCOC(=O)N1CCC(N2CCN(c3cc(C)ccc3C)CC2)CC1`, the z-score is -0.479.
`O=C(O)c1cc(N/N=C/c2ccc(N3CCOCC3)s2)ccc1Cl`: the z-score is -0.13.
On to `Cc1ccc(NC(=O)c2noc3c2CCc2ccccc2-3)cc1`, for which the z-score worked out at 0.349.
Then `COc1ccccc1CNc1ccc(C(=O)O)cc1`, with -0.0956; and `COc1cccc(C2C(C#N)=C(N)Oc3c2oc(CO)cc3=O)c1OC` (configuration not stated), with -0.484.
Then `C=CCn1c(N)cc(=O)nc1SCC(=O)Nc1ccccc1`, with 1.06; and `CCOC(=O)N1CCN(C2CC(=O)N(c3ccc(C)cc3)C2=O)CC1` (configuration not stated), with -0.18.
In turn, `CCOc1ccc(NC(=S)NCCCN2CCN(C3CCCCC3)CC2)cc1` came in with a z-score of 0.0645.
Consider `COc1cc(OC)cc(-c2nnc(SCC(=O)N3CCOCC3)o2)c1`, for which the z-score was 0.337.
On to `Cc1sc2nc(C(C)Nc3ccccc3N3CCOCC3)[nH]c(=O)c2c1C` (configuration not stated), for which the z-score is -0.62.
Then `COc1ccc(C)cc1S(=O)(=O)N(CC(=O)NCc1ccc(Cl)cc1)Cc1ccccc1`, with -0.0694; and `CC(=O)Nc1ccc(C(=O)OCc2ccccc2Cl)cc1`, with 0.177.
Regarding `CC1(C)Cc2c(c(N3CCOCC3)nc3sc4c(NN)ncnc4c23)CS1`, the z-score was -0.194.
Turning to `O=C(O)CC(C(=O)N(c1ccccc1)c1ccccc1)N1CCOCC1` (configuration not stated), the z-score was -0.293.
As to `Cn1c(SCc2ccccc2)nnc1-c1ccncc1`, the z-score is -0.0565.
`COc1ccccc1/C=C/C(=O)NC(=S)NC(C)C`: the z-score is 0.776.
Take `CC1(C)Cc2nc3sc4c(N(CCO)CCO)ncnc4c3cc2CO1`: the z-score was -0.312.
`O=C(NC(=S)Nc1ccccc1N1CCOCC1)c1cccs1`: the z-score was active: 4.28.
Turning to `CCC1CCCCN1C(=O)CSc1nnc(CNC(=O)c2cc(OC)c(OC)c(OC)c2)o1` (configuration not stated), the z-score was -0.544.
`Cn1cc(C(=O)c2ccccc2)cc1-c1nc2ccccc2n1C`: the z-score is -0.215.
On to `COc1ccc2c(c1)C1(Nc3ccccc3-c3nc4ccccc4n31)C(=O)N2C` (configuration not stated), for which the z-score is -0.0719.
